Source: the RNAGym collection of RNA variant scans (doi:10.7554/elife.90254)
Read counts are not given, so values of variants with three or more changes are uncertain.

B1: LINE1-mini (parent)
chain: GGCAGAGCUCAACACAGCGUGGCAAAGUGGCUGUGGCUAGACUGCC

Variants of: B1
Assay: self-cleavage, relative activity (ratio to wild type); higher = more cleavage; in vitro, sequencing; the parent is a self-cleaving ribozyme
With C13G G21A A41G the self-cleavage was 0.01. With C13G G21A G36A C46A the self-cleavage was 0.04. In the case of C13G G21C G35U C37G U43G, the self-cleavage is reported as 1.04. With C13G G21U C23A G30U C31A U38A C42A G44U the self-cleavage was 0.07. Variant C13G G21U C37G G44A has a self-cleavage of 0.22. With C13G G21U G33U the self-cleavage was 0.05. For C13G G21U U32G C42G C46A, the self-cleavage was 0.02. Work on C13G G22A U32A yielded a self-cleavage of 0.05. In the case of C13G G22C A24U, the self-cleavage is reported as 0.04. C13G G22C A25C G29U G30C C31U U34A showed a self-cleavage of 0.01. With C13G G22C G30A C46U the self-cleavage was 0.02. For C13G G22U A25G C37A, the self-cleavage was 0.03. Work on C13G G27C G35C A39G yielded a self-cleavage of 0.42. C13G G27C G36A showed a self-cleavage of 0.04. Variant C13G G29A G36A U38G has a self-cleavage of 0.02. Work on C13G G29U G35C yielded a self-cleavage of 0.42. C13G G29U G40U C46G showed a self-cleavage of 0.09. Variant C13G G29U G44U has a self-cleavage of 0.16. C13G G30C U32A U34A C42U showed a self-cleavage of 0.02. In the case of C13G G30U G36A, the self-cleavage is reported as 0.05. With C13G G33A A39U G40C C42U the self-cleavage was 0.45. C13G G33A C46G gave a self-cleavage of 0. C13G G33C G35U G36U gave a self-cleavage of 0.04. C13G G33U C37U C45A showed a self-cleavage of 0.03. C13G G33U G36A showed a self-cleavage of 0.03. With C13G G35A A41G the self-cleavage was 0.01. With C13G G35U C37G C42A the self-cleavage was 0.05. C13G G35U U38G gave a self-cleavage of 0.05. Work on C13G G36U C46U yielded a self-cleavage of 0.06. Variant C13G G40U C46G has a self-cleavage of 0.06. Work on C13G U20A U32G G40U U43A yielded a self-cleavage of 0.01. With C13G U20A U34A G35A the self-cleavage was 0.01. Variant C13G U28G C37U A41U U43G C46G has a self-cleavage of 0.03. For C13G U28G C45G, the self-cleavage was 0.03. Work on C13G U34A A41G yielded a self-cleavage of 0.08. Work on C13G U34A C45U yielded a self-cleavage of 0.06. C13G U34A C46A showed a self-cleavage of 0.05. C13U A14C A16U showed a self-cleavage of 0.08. For C13U A14G G17A G21C G22U C31A C42U, the self-cleavage was 0.01. In the case of C13U A14G G30U, the self-cleavage is reported as 0.15. C13U A16G G17C C18A gave a self-cleavage of 0.07. C13U A16G G19A U32C U34C showed a self-cleavage of 0.12. For C13U A16G G22A U34G, the self-cleavage was 0.04. Work on C13U A16G G33C U34C yielded a self-cleavage of 0.02. Variant C13U A16G U34G has a self-cleavage of 0.01. C13U A16U C23A G30A C37G gave a self-cleavage of 0.13. Work on C13U A16U G36A yielded a self-cleavage of 0.17. C13U A16U U20C U32G A41U G44U showed a self-cleavage of 0.02. C13U A24C G35A gave a self-cleavage of 0.4. C13U A24C U28G G40C showed a self-cleavage of 0.03. In the case of C13U A24C U34A, the self-cleavage is reported as 0.02. C13U A24G G27A gave a self-cleavage of 0.03. For C13U A24U G29A G30U G33C A41U C42G, the self-cleavage was 0.02. C13U A24U G36C showed a self-cleavage of 0.03. Variant C13U A25C C37U U38G has a self-cleavage of 0.01. For C13U A25C C45U, the self-cleavage was 0.02. Work on C13U A25C U28A C31A C45G yielded a self-cleavage of 0.03. C13U A25G G29U U38A showed a self-cleavage of 0.06. With C13U A26C G29U the self-cleavage was 0.21. In the case of C13U A26C U34C C37U A41U, the self-cleavage is reported as 0. C13U A26G A39G showed a self-cleavage of 0.04. Variant C13U A39C C42G U43C G44A has a self-cleavage of 0.01. C13U A41U C46A showed a self-cleavage of 0. C13U C15A C18A C37G gave a self-cleavage of 0.02. With C13U C15A C23U A25U C42U the self-cleavage was 0.24. For C13U C15A G17U G21A A24C G27C G33U U38A, the self-cleavage was 0.06. C13U C15A U38A C45A showed a self-cleavage of 0.02. C13U C15G A26C G35C gave a self-cleavage of 0.01. With C13U C15G C18G the self-cleavage was 0. In the case of C13U C15G G22C U28G G29U C45G, the self-cleavage is reported as 0.02. Variant C13U C15U G35A A41C has a self-cleavage of 0.02. For C13U C15U U28A, the self-cleavage was 0.07. Variant C13U C18A C23U has a self-cleavage of 0.03. C13U C18A G22U A24C G33C A41G showed a self-cleavage of 0.03. In the case of C13U C18A U34G, the self-cleavage is reported as 0.01. C13U C18G A24G A26C G30U C31A gave a self-cleavage of 0.04. For C13U C18G G29A G36C G44U, the self-cleavage was 0.04. Variant C13U C18U A26C C46A has a self-cleavage of 0.04. For C13U C18U A26U, the self-cleavage was 0.04. Variant C13U C18U G22A A25C U43C has a self-cleavage of 0.03. C13U C18U G22U C37G showed a self-cleavage of 0.02. Variant C13U C18U G27U C42A has a self-cleavage of 0.07. Variant C13U C23A C46A has a self-cleavage of 0.13.
